In all, about 33,000 sequences were measured (“E-score (-0.5 to 0.5)”: median about -0.056, highest 2% from about 0.38 on). The list shows a part of the results.
Biological target: Stb4 (UniProt P50104)
Test: PBM E-score (8-mer binding enrichment) (E-score (-0.5 to 0.5)); higher = stronger / more preferred TF binding; most listed sequences are background and not binding sites
Conditions: protein concentration: 200 nM; construct: GST-DNA-binding domain
Procedure: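 Universal 'all 10-mer' protein binding microarrays (Agilent AMADID 015681) probed with GST-tagged S. cerevisiae TFs (full-length or DBD) made by in vitro transcription/translation (PURExpress), about 100-200 nM. Bound TF was detected with fluorescent anti-GST. Each ungapped 8-mer (which stands for itself and its reverse complement) is scored by the PBM enrichment score (E-score), a modified Wilcoxon-Mann-Whitney statistic from -0.5 to +0.5, computed with the Universal PBM Analysis Suite. Scale: above 0.35 generally sequence-specific binding.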

Row | Sequence | PBM E-score
1 | CCGATGAA | 0.33
2 | TAGCCCGA | 0.245
3 | GGCTGACC | -0.0737
4 | ATAGGCGA | -0.0411
5 | CGTTAGTA | -0.0234
6 | GATAACCA | -0.0419
7 | AACAATCG | -0.0575
8 | CGGTCTAC | -0.0166
9 | TCGGAGAA | 0.368
10 | ACTGGGGC | -0.0477
11 | CGACGAGC | -0.0324
12 | CCTTAAGC | -0.0576
13 | AGGACATG | -0.179
14 | TCGAGCAA | -0.141
15 | ACAGTAAC | -0.106
16 | CCCCTAGC | -0.167
17 | GGCACGCA | 0.0767
18 | CACTGCTA | -0.267
19 | ACGCGGGG | 0.124
20 | CGTCCGAG | 0.257
21 | AACTAGTG | -0.171
22 | AGACCTAG | -0.151
23 | AGTCGGGG | 0.205
24 | CAATCCTA | -0.156
25 | ACTAAGTA | -0.181

Row | Sequence | PBM E-score
26 | AGGTATGC | -0.11
27 | AAGGGCGC | -0.171
28 | CCGGCCAC | 0.227
29 | CATCTACC | 0.128
30 | ATAGTGCG | 0.0217
31 | AACACGGA | 0.283
32 | CGGACTTA | 0.124
33 | GCAGGCGA | -0.271
34 | GACAGGTC | -0.188
35 | TAAATAAA | 0.0338
36 | CAGCGTTA | -0.196
37 | CTATTTGA | 0.0111
38 | AACTAGGA | 0.0198
39 | CCCACCCA | -0.0328
40 | TAATGTCA | -0.012
41 | GAAGATAC | 0.169
42 | AGTATTAT | -0.393
43 | AACTATGG | -0.183
44 | GCTAGGCC | -0.133
45 | AGAACTTC | 0.0283
46 | CAAAAATG | -0.0968
47 | AAAGGTTG | -0.0423
48 | CCTGACGC | -0.0704
49 | AGGACAGG | -0.228
50 | TATGTCGA | -0.143

Row | Sequence | PBM E-score
51 | CTCGTTAC | -0.268
52 | AAATACGT | -0.245
53 | CTCTGCGA | -0.308
54 | AACGAACG | -0.0822
55 | CTTGTCTA | -0.116
56 | AAGGCTCC | -0.0902
57 | CCGACCCC | 0.214
58 | AGATCCCA | -0.0953
59 | AGACGCTC | -0.153
60 | CTATCACC | 0.00312
61 | CTTCTTGA | -0.164
62 | CTTTACAA | -0.0169
63 | ACCAGAGA | -0.352
64 | GTTAACGA | -0.133
65 | ACTGGACG | -0.0457
66 | CAGCTGGA | -0.174
67 | GGCGAATA | 0.0785
68 | GCACTAAA | 0.00591
69 | GGAGTCAA | 0.175
70 | AGATTGTC | 0.153
71 | CCGCTCGC | 0.205
72 | CAATGCTA | -0.0921
73 | CGTTTGCA | 0.0158
74 | CTGTCGAA | -0.0969
75 | CAAGGAAC | 0.0878

Row | Sequence | PBM E-score
76 | AGGCCAAA | -0.106
77 | GCTTAAGA | -0.0785
78 | AAGATTCG | 0.0909
79 | AAAGCAAG | 0.149
80 | AGTGATAA | -0.144
81 | AGCTAACG | -0.108
82 | CTCAAGGA | -0.0981
83 | AAGCGCTG | -0.0331
84 | AAGACCTC | -0.0836
85 | TCAGCCGA | 0.385
86 | ACCCATAG | -0.221
87 | CTGTTACA | -0.0408
88 | CCTCGCTA | -0.29
89 | GCAGGACA | 0.0224
90 | ACCCGTTA | 0.269
91 | AAATAAGA | 0.0469
92 | ATATAAGA | -0.0688
93 | ACTGCCGC | 0.203
94 | AGTAAAAC | -0.181
95 | CGTGCATC | -0.0996
96 | ATCGTAAG | -0.229
97 | CCCGCGAA | 0.128
98 | GAAGATCC | 0.303
99 | AACGTTTG | -0.0719
100 | CAGCTAGA | -0.308

Row | Sequence | PBM E-score
101 | AGATAACA | -0.22
102 | GTGCTCTA | -0.212
103 | CATAGAAC | 0.0297
104 | TCAGGCAA | -0.234
105 | ATGCAGAC | -0.0485
106 | CCCATGAA | -0.212
107 | CGGAGCTC | 0.193
108 | CTTCCAAA | -0.174
109 | ACTTAGAT | -0.023
110 | GGACATAC | 0.0378
111 | CCTTTTAC | -0.0692
112 | AACAAATG | 0.0077
113 | AGTCTGCA | -0.142
114 | ATCATATG | -0.052
115 | AAGTCTGG | -0.28
116 | CAGCAGCA | -0.258
117 | GATAACGA | -0.0372
118 | GACTCGCA | -0.0572
119 | ATGTAGAG | -0.17
120 | ATCCATCG | -0.0113
121 | CACAATGA | -0.213
122 | CAAAATTG | -0.127
123 | CCCTCTAG | -0.279
124 | CCGATACA | 0.257
125 | CCCTCTGC | -0.325

Row | Sequence | PBM E-score
126 | ATGCTGCG | -0.186
127 | CTCAAACC | -0.0373
128 | AATGGCGG | 0.181
129 | AATCGGTC | 0.148
130 | CGAGGGAG | 0.13
131 | CACAGTAG | -0.0912
132 | CCATCTTA | 0.0253
133 | GTACAGAC | -0.132
134 | ACTAGTTG | -0.227
135 | ATAAAACA | -0.109
136 | CGCCACAC | -0.112
137 | ACCTCGTA | 0.0536
138 | CCATAGCA | -0.235
139 | AGTCGGGA | 0.362
140 | AACCCGGC | 0.31
141 | GACTGCGC | -0.0477
142 | TAGGGGCA | -0.229
143 | GCTCTTCA | -0.219
144 | CGGATGAA | 0.433
145 | CTTTAAAC | -0.118
146 | CATACTCA | 0.0149
147 | ATCAGTGG | -0.0961
148 | GTGGGATA | 0.0024
149 | ACATTGGG | -0.0778
150 | ACCAGGCA | -0.265

Row | Sequence | PBM E-score
151 | AGAGGGCC | -0.196
152 | AAATTGGG | 0.0125
153 | ATTCTACA | -0.0259
154 | TACTTAGA | -0.21
155 | CTAACGCC | -0.0765
156 | AGTGCACA | -0.0186
157 | AATATGGC | -0.0316
158 | AGCCTGTC | -0.131
159 | CAAAATGC | -0.121
160 | CCATGAGA | -0.0163
161 | GCTATGTA | -0.232
162 | AGGGTTAT | -0.0871
163 | AGCATCTG | -0.135
164 | ATGTTTTA | -0.24
165 | TAACCTGA | -0.0906
166 | AGAGAGCC | -0.116
167 | AGCTCTCC | 0.0268
168 | TACAACCA | -0.0767
169 | CTTTTATA | -0.0466
170 | ACGAATCC | 0.009
171 | CCTTACAG | -0.233
172 | CCGCAGTC | 0.112

— the supplement of paper PMC3334620
